Reference: PubChem BioAssay AID1346428 (National Center for Advancing Translational Sciences (NCATS), 2018)
Screen size: about 48,000 compounds; about 1,200 (2.5%) were called active. Another 2% or so got no clear call; they are omitted.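 The calls were made as follows: active = activation of at least 60% and not above a set upper limit (about 1 call in 100 departs from these limits); inconclusive = activation of 40% to 60%, or above that upper limit; inactive = activation under 40%.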 This is one part of the list.

The molecules below were run against Probable G-protein coupled receptor 32 (Homo sapiens) (UniProt O75388) (assay: qHTS for Agonists of Human Resolvin D1 Receptor DRV1). Conditions: CHO-K1 GPR32 beta-arrestin PathHunter luminescence, 90 min; at 76.9 µM; active compounds read high; zero percent set by DMSO-only wells.
UniProt O75388, sequence (O75388 whole entry, looked up, the tested form may be a part): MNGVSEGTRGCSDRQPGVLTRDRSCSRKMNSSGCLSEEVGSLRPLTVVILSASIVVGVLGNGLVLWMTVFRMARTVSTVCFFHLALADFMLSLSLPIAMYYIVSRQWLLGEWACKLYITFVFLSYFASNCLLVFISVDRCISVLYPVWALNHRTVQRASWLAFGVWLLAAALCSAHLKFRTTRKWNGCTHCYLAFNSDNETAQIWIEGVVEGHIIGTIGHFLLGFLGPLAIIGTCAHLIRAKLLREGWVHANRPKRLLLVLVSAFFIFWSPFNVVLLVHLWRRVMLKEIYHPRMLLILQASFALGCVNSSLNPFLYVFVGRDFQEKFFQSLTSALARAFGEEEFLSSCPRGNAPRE
Method in brief: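 Agonism was scored as beta-arrestin recruitment to ProLink-fused GPR32 in stably transfected CHO-K1 cells, giving a chemiluminescent beta-Gal signal; compounds were incubated 90 min at 37 °C.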
Also: 0% is about no effect.

activation, inactive:
CCC(=O)N1CCc2cc(S(=O)(=O)CCC(=O)NCc3ccc(C)cc3)ccc21 10.7%, COc1ccccc1-c1nc2c(c(SCC(=O)Nc3c(C)cc(C)cc3C)n1)Cc1c(CO)cnc(C)c1O2 -9.64%, CCOc1ccc(-c2cc(C(=O)N3CCN(S(=O)(=O)c4cc(Cl)ccc4OC)CC3)[nH]n2)cc1 -0.298%, CCOc1ccc(CCNC(=O)c2ccc(Nc3nc4ccccc4n4nnnc34)cc2)cc1OCC -10.2%, Cc1ccc(N2C(=O)N(CC(=O)C(C)(C)C)c3ccccc3S2(=O)=O)cc1C -5.76%, CCc1cccc(NC(=O)c2cc3c(=O)n(Cc4ccc(OC)cc4)ccc3nc2C)c1 -24.9%, CCCSc1nnc2c(n1)OC(c1sccc1C)Nc1ccccc1-2 (stereo not drawn) -8.49%, Cc1c(Cl)cccc1NC(=O)CN1C(=O)COc2ccc(S(=O)(=O)N3CCOCC3)cc21 -16.3%, Cc1cc2oc(C(=O)N(Cc3ccccc3F)C3CCS(=O)(=O)C3)c(C)c2cc1Cl (stereo not drawn) -30.6%, CCOC(=O)c1ccc(NC(=O)c2c(N3CCCC3=O)c3cc(OC)ccc3n2C)cc1 1.66%, Cc1ccc(C)c(N2CCN(C(=O)Cn3ncc4ccsc4c3=O)CC2)c1 45.6%, CCOc1ccc(C(=O)c2oc3ccccc3c2NC(=O)Cc2coc3cc(C)cc(C)c23)cc1 3.23%, CCc1ccc(Cn2c(CNS(=O)(=O)c3ccc(F)c(Cl)c3)nc3cccnc32)cc1 -17.8%, CC(=O)N1CCCC1c1nc2ccccc2n1Cc1ccccc1 (stereo not drawn) -7.15%, CC1=C(C(=O)OCC2CCCCC2)C(c2cccc(Cl)c2Cl)CC(=O)N1 (stereo not drawn) 13.4%, Cc1cc(Br)ccc1NC(=O)C1CCN(S(=O)(=O)c2cccc3nsnc23)CC1 0.106%, Cc1ccccc1-c1nnc(CN2CCN(c3ccccn3)CC2)o1 11.8%, COc1ccc(-c2noc(-c3ccc(N4CCN(C)CC4)c([N+](=O)[O-])c3)n2)cc1OC -4.48%, COCCCNC(=O)C(=O)Nc1c2c(nn1-c1cccc(Cl)c1)CSC2 -49.7%, CCOC(=O)c1ccc(NC(=O)N2CCOc3ccccc32)cc1 -19.4%, CCOc1ccc(CCNC(=O)c2cnc3sc(N4CCC(C)CC4)nn3c2=O)cc1 -5.5%, COC(=O)c1c(-c2cccs2)csc1NC(=O)COc1c(C)ccc(C)c1C -14.1%, CNC(=O)Cn1cc(S(=O)(=O)Cc2ccccc2F)c2ccccc21 -0.492%
